Some of the results follow.
tested on: PF3D7_0420300 AP2 domain 1 (GST-tagged); test: gcPBM binding intensity (ln(normalized median fluorescence intensity)); higher = stronger DNA binding
Outline: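 Alexa488 anti-GST antibody, scanned at 488 nm, detected GST-tagged P. falciparum DNA-binding domains that had been expressed in E. coli and incubated for 1 h on an Agilent 4 × 180k array. The array carried primer-extended double-stranded 36-bp intergenic genomic probes and negative controls. Binding intensity is the highest Masliner-normalised natural-log median intensity across replicate spots of either orientation of each probe.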

Row | Sequence | gcPBM binding intensity (ln)
1 | TTGCTCATTGAAATTATACACACCAAATATATAAAT [CACACA_site2482] | 9.32
2 | AACCTATCTATAGGAACAATATATATATATATAATT [CACACA_negctrl_site1707] | 9.24
3 | TATTATGCTATTTAATGTACGGAATTTATATATATA [XGTACX_site564] | 9.14
4 | AAAATATATAAACGCACATATATTTATGTATATATA [CACACA_negctrl_site163] | 9.37
5 | TAAAAAAAAACATGATGTACATAAAATTTTTTACTT [XGTACX_site7056] | 9.12
6 | TTATTAGAGATGTTAAGATATAGGGATAATTTCGAT [XGTACX_negctrl_site395] | 9.06
7 | TACATATATTTAAGGAGTACAAAAAATAATGATAAA [XGTACX_site3539] | 9.31
8 | AAAAGGGAAAAAATTAAAATTATATATATATATATG [CACACA_negctrl_site137] | 8.98
9 | TTTGTTCAATTTACATGTACAGATATAATCTAACAT [XGTACX_site370] | 9.1
10 | TCTATTAAAACAAATTGTACTTATTGATAAAGAATA [XGTACX_site3645] | 8.85
11 | ATTTTTATTTTATATACACACAATAATAATATAATA [CACACA_site4015] | 9.39
12 | AAGAGCAACCAAATAGAAAAAGGAAAATAAAAGGAA [CACACA_negctrl_site100] | 9.51
13 | TCCTATTTTATATAATGTACATAAATATATTACATA [XGTACX_site2720] | 9.25
14 | TATAACATAAAACACACACACATACATACACAAAAA [CACACA_site1804] | 10.1
15 | AAATTTTTTTTTTAATTTTTTATTTAAAAAAAATAT [TGCATGCA_negctrl_site174] | 8.66
16 | GTTATAAATAAATATACACACATATATAAAATACAT [CACACA_site7146] | 9.75
17 | CGCTTTATTTATATATGTACATATATATATATATAC [XGTACX_site5012] | 9.33
18 | AAGGCAAACAGACACACACACATATATACCTATATA [CACACA_site7077] | 9.76
19 | GTTATACACATTACATGTACAAAAGTTGCACTTCAT [XGTACX_site6023] | 9.28
20 | GTTGCCATCATTTGGCGTACAGTCAAAACCAAATCT [XGTACX_site1398] | 8.93
21 | TATAAGAAATAAAACCTGATTATAAACCTGTAACCA [CACACA_negctrl_site1302] | 9.34
22 | TAAATATAACAGAATAATATGTGGATTAATAAATGA [CACACA_negctrl_site438] | 9.37

Row | Sequence | gcPBM binding intensity (ln)
23 | ATATAATATGTTGAATGTACTTAAAAAAATGTATCT [XGTACX_site5385] | 9.21
24 | AAAAAAAAAAAAAAAACACACATGTATACTAGAATA [CACACA_site7108] | 9.46
25 | TTAAGTTACAATTCTCGTACACATTAAAAGAAAATT [XGTACX_site699] | 9.02
26 | TTACAAATGTAGAAAAGTACATATAATAATAATTTA [XGTACX_site3044] | 9.14
27 | ATGGATAATAATAAGTGTACACATATATTTAGAAGA [XGTACX_site244] | 9.4
28 | AAAAAAAAAAAAAGCACACACACATATGCGTATATA [CACACA_site953] | 9.86
29 | TTTAAGCGTTCACTGCTGCACTTTTATGTTGTGACC | 9.08
30 | GGTAGAAAATCAGTTAAACACACACCGAAAAAAAAA [CACACA_site8934] | 9.67
31 | ATTTGTATAATAAGTTGTACAATTCTTACAATATAA [XGTACX_site4164] | 8.99
32 | GTCACATTGTTATATTGTACAAATGTCGTTCTTTTT [XGTACX_site8098] | 9.56
33 | CACTATCAATATATATGTACATATATATATATATAT [XGTACX_site7854] | 9.28
34 | TAAATATATAAATACACACAAACATACATATATATA [CACACA_site4050] | 9.88
35 | ATATAAAAATATATTAATATAAATAAATGGACATAT [XGTACX_negctrl_site488] | 9.44
36 | CTTATACATTATTAACGTACATGTTATATGAATAAC [XGTACX_site5752] | 9.15
37 | AACATTATAGGACACACACACACATATATATATATA [CACACA_site4721] | 10.2
38 | TTTTTTTTTTTTTTTTTTTTTTTTAAATGCTTCTAA [TGCATGCA_negctrl_site253] | 8.46
39 | TTTTAATTATATTATGCACACACAATTGGAAAAAAA [CACACA_site8598] | 9.52
40 | AACAAATAAGATAAATGACTTAACAAAAGAAAAAAG [CACACA_negctrl_site1409] | 9.57
41 | GTAAAAAATATGAATACACACATAAAGGAAATAACA [CACACA_site1997] | 9.96
42 | AAAAAAAAAAAATTCACACACATATAAAAAATTAAG [CACACA_site728] | 9.7
43 | AAAAAAAAAAAAAAAAGTACAGACGTCAAAAAAAAA [XGTACX_site4817] | 9.34
44 | TTTTTTTTTTTTTTTTTTTTTTTTGGGTCCCATACA [CACACA_negctrl_site913] | 8.59

Row | Sequence | gcPBM binding intensity (ln)
45 | TAATATATAAGTATTTGTACATATTCATTCATCTAT [XGTACX_site2935] | 9.13
46 | AATGAGCGTTAAAAATGTACAGAAAATTGGAATTAT [XGTACX_site5743] | 9.4
47 | AAAACTTTTAGTTATACACACAACATAGAAAATATT [CACACA_site6287] | 9.54
48 | AACAATCAAATAGACACACACACACCCAAACATAAA [CACACA_site2757] | 10.1
49 | CTCCTACAAATATGTAGTACATTCAAAATAAATACC [XGTACX_site8207] | 8.99
50 | ATGCAATAAATATACACACACAAATCTATATTTATA [CACACA_site7179] | 9.84
51 | AAATAAAATAATTATAATACTAAAAATAATACATAA [GTGCAC_negctrl_site106] | 9.42
52 | AATTATTATATATATATATATATATATTTATATATT [GTGCAC_negctrl_site387] | 9.11
53 | AGTTCAAGGATTAAGACACACATATAAATAAATAAA [CACACA_site3662] | 9.46
54 | AAAAAATGGATGATCACACACTTCATAAAAGTTGCA [CACACA_site7109] | 9.24
55 | TTTTTTTTGTAGAATTGTACTTATAAAATATATATA [XGTACX_site2116] | 8.84
56 | CATTATGTTGTAAATACACACATACCTATACATACA [CACACA_site6485] | 9.54
57 | TATTTATTTATATTTACACACATTCATATAAATTCA [CACACA_site7628] | 9.48
58 | TTTTTTTTTTTATCTGCACACCCTTTTGTGAATATT [CACACA_site789] | 9.36
59 | TCTGAGAATGATAAAAAAAAAAAAAATGAAAAATTA [CACACA_negctrl_site1478] | 8.93
60 | ACGATATTTTTGGTGACACACATATATATATATATA [CACACA_site126] | 9.53
61 | TAATAAGTATAAAATAGTACATATAAATATATCAAA [XGTACX_site8834] | 9.38
62 | AGGAATAAATAATTAACACACACAATCTTTTTTTTT [CACACA_site9027] | 9.76
63 | ACTTTTTCACATAAAAATGATCCGATTAGTAATAAT [XGTACX_negctrl_site248] | 9.16
64 | AAATAAAAAAACTATTGTACTGAATACAAATTAAAT [XGTACX_site3793] | 9.24
65 | ATAATATTAGTAAACACACTCAAATTATATATGATA [CACACA_site5721] | 9.3
66 | AGTATACATTCATTTTGTACTCAATGATTTGATAAC [XGTACX_site6787] | 9.09

Row | Sequence | gcPBM binding intensity (ln)
67 | ATAATTATATTCCATACACACATATATTTAAAGGTT [CACACA_site2957] | 9.53
68 | CATTTTTTAAGCATCACACACGAAAGAACAAAGTGG [CACACA_site4755] | 9.47
69 | TTTTTTTTTTTAAGGTGTACAATAAAAATTTATGCA [XGTACX_site8860] | 8.87
70 | TGGAAAATTATAAGGTGTACATATAAGCTATTATAT [XGTACX_site118] | 9.38
71 | CATATATAAAATATATGTACTTATAGAACATAATTT [XGTACX_site1936] | 9.06
72 | TTATAATAAATATGAAGTACTATAAATATGGTATAT [XGTACX_site5448] | 9.34
73 | CACTAAAATGGACACACACACACACCGATATATATA [CACACA_site6139] | 10.2
74 | AATAAATATAGGAATACACACAATATAAATGTATTG [CACACA_site3366] | 9.67
75 | ATCGCATAAAGACAAGAACACACATATATATTGTAG [CACACA_site9229] | 9.41
76 | TTTTTATTGAGAACAGTGCAAATAACAAAAAAAAAA | 9.22
77 | ATTTGGCATAAACACACACACACACCCACCCACATA [CACACA_site8096] | 10.4
78 | TAAATAAATACATACACACACATACATATATATATA [CACACA_site3129] | 9.94
79 | TTATTGTTTATTAAATGTACAGATTCGTTAAAATTA [XGTACX_site3041] | 8.98
80 | ACAACAATATGGAATTGTACATATATATATAAATAT [XGTACX_site3139] | 9.32
81 | CTAGCAAATACATACACACACACACCCATACATATA [CACACA_site3496] | 10.3
82 | TATTTTTTTGTGTTTGGTACACACGTTATAAAAAAT [XGTACX_site2655] | 9.17
83 | TACACAAAACATAAAAGTACATAATAATAAAGTTAA [XGTACX_site8872] | 9.56
84 | GAACAAATAAAAAGGAGTACAATCAAATCTACGTAT [XGTACX_site343] | 9.59
85 | AAATTATAATTAGGAACACACATATATATATATATA [CACACA_site3098] | 9.4
86 | TACATACATACATACATACACACATATATATATATA [CACACA_site1996] | 9.45
87 | TACATGTATAATATAATACACACTATATAATATACA [CACACA_site2239] | 9.41
88 | AAAAAGAAGATGCAAACATGCACACAGAAAAAAAAA [TGCATGCA_site375] | 9.51

Source: the supplement of paper PMC11417369
